This is one part of the list. At the low end of the ranking the order means little.
These sequences were tested against SIX1-Q177R homeodomain (UniProt Q15475) (assay: universal protein binding microarray). Conditions: Universal all-10-mer PBM (8x60K, AMADID 030236), 300 nM GST-tagged protein, Alexa Fluor 488 anti-GST; buffer, salt, pH and temperature not stated; high values mean tight binding; most listed sequences are background and not binding sites; double strand, one strand shown.
ACCTTGAT was tested, and the binding signal was 0.011 E-score. For TCGTAGAA, the binding signal was 0.0254 E-score. Work on AGCAAATC yielded a binding signal of -0.161 E-score. In the case of AGTCAGAC, the binding signal is reported as -0.123 E-score. AGACACCG was tested, and the binding signal was 0.468 E-score. ACCCCGAA gave a binding signal of 0.228 E-score. ATCTATGC showed a binding signal of 0.00494 E-score. Sequence AGTCTCTC has a binding signal of -0.0785 E-score. GGTATAGA was tested, and the binding signal was 0.0769 E-score. In the case of ATCACACC, the binding signal is reported as 0.442 E-score. For CCTCCCTC, the binding signal was 0.0282 E-score. Work on CGTCTTCC yielded a binding signal of 0.0116 E-score. Work on ATATTTGA yielded a binding signal of -0.0434 E-score. With CGGGCTAG the binding signal was 0.0539 E-score. GCTAAGCA gave a binding signal of -0.127 E-score. With AACAGGCT the binding signal was -0.0833 E-score. ATTGTGCG was tested, and the binding signal was -0.242 E-score. With AGTGATCG the binding signal was 0.00954 E-score. Work on AGAGTATG yielded a binding signal of -0.193 E-score. TAGCTAGA was tested, and the binding signal was -0.218 E-score. For ACGGCTAC, the binding signal was 0.131 E-score. CTCTATGA gave a binding signal of -0.182 E-score. Work on TCATTCGA yielded a binding signal of -0.0272 E-score. Sequence CCGCATTC has a binding signal of -0.292 E-score. In the case of ATAAGCAT, the binding signal is reported as -0.142 E-score. Sequence AGCGATGA has a binding signal of -0.0994 E-score. For AGTGTAGG, the binding signal was 0.411 E-score. Sequence AACGCGGT has a binding signal of 0.0755 E-score. AGGATCGA was tested, and the binding signal was 0.144 E-score. Sequence GAAGTGTA has a binding signal of 0.368 E-score. ACCAAACT gave a binding signal of -0.0694 E-score. CGGCAAAA gave a binding signal of -0.0666 E-score. Sequence TGAGTGCA has a binding signal of 0.00261 E-score. For AAGGGGCA, the binding signal was -0.0365 E-score. For AAAACAGA, the binding signal was -0.211 E-score. AGGGTGCG gave a binding signal of 0.226 E-score. With TATTAGAA the binding signal was -0.117 E-score. Sequence GGCTAAAC has a binding signal of -0.0876 E-score. ACCCGCAT was tested, and the binding signal was 0.135 E-score. Sequence ACCTGCCA has a binding signal of -0.00664 E-score. Work on GGAATCCC yielded a binding signal of 0.149 E-score. In the case of AGACGAGG, the binding signal is reported as -0.0152 E-score. In the case of GTCCGGTA, the binding signal is reported as -0.0712 E-score. TCAAGAAA showed a binding signal of -0.17 E-score. ACAGAAGC showed a binding signal of -0.119 E-score. With ACCGTGGA the binding signal was 0.0592 E-score. CAACCGGA gave a binding signal of -0.0947 E-score. In the case of CTCTAATC, the binding signal is reported as 0.05 E-score. CTCCCCAA showed a binding signal of 0.28 E-score. ACTCAGCT was tested, and the binding signal was -0.134 E-score. ATTGCAGG was tested, and the binding signal was 0.0323 E-score. CCCGGCTA showed a binding signal of 0.107 E-score. CCTGCGAA showed a binding signal of -0.201 E-score. For ATAACGAG, the binding signal was 0.0638 E-score. CGTCCAGA was tested, and the binding signal was -0.0791 E-score. Sequence GTCAGGCA has a binding signal of -0.0481 E-score. CGTTACCA was tested, and the binding signal was 0.0433 E-score. For TCTACCAA, the binding signal was -0.104 E-score. TACTGTAA showed a binding signal of 0.089 E-score. For GCAAAGGC, the binding signal was -0.186 E-score. Work on AAGTCTGC yielded a binding signal of -0.0996 E-score. Sequence TCGGCCGA has a binding signal of -0.103 E-score. Work on GAAGGAAA yielded a binding signal of -0.202 E-score. In the case of CAGCTTCG, the binding signal is reported as -0.132 E-score. With GCCGCTTA the binding signal was -0.241 E-score. With AATCCTTA the binding signal was 0.0413 E-score. Sequence CAAACTGA has a binding signal of -0.0672 E-score. Sequence TACCTTAA has a binding signal of -0.0269 E-score. CGCAAGGA showed a binding signal of -0.067 E-score. In the case of CGGCACAC, the binding signal is reported as 0.208 E-score. ACCTGAGC showed a binding signal of 0.0704 E-score. With TCTGCAGA the binding signal was -0.183 E-score. ATGCGCCA showed a binding signal of -0.0656 E-score. GGAGGAGA was tested, and the binding signal was 0.00223 E-score. GCGGGAGC showed a binding signal of -0.146 E-score. Work on ATGGCCAA yielded a binding signal of -0.264 E-score. Work on CCCTACAG yielded a binding signal of -0.12 E-score. With ATGTCGCC the binding signal was -0.0794 E-score. For GACGGTGA, the binding signal was -0.132 E-score. For AATATTAC, the binding signal was 0.00845 E-score. In the case of ACGATAGA, the binding signal is reported as 0.00649 E-score. Sequence CGGATAGC has a binding signal of -0.0537 E-score. CCGTATTC gave a binding signal of 0.00109 E-score. In the case of AAAAGCAT, the binding signal is reported as -0.27 E-score. Work on CATGACGG yielded a binding signal of -0.143 E-score. With CCCAGGAC the binding signal was 0.113 E-score.
